# Measured values from the supplement of paper PMC6089552.
# Out of some 3,200 compounds screened, about 300 (9.4%) showed activity. The list shows a part of the results, in another mix than the full data.
# Test system: A673/TR/shEF
# Assay: cell viability (LOESS-normalised, relative to median of negative controls) (log2 ratio); higher = more viable cells (less compound effect), active = hit call of the paper (over 3 MAD below the median)
# Details: treatment time: 72 h
# Method in brief: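 A673/TR/shEF Ewing sarcoma cells were plated at 1,500 per well in 384-well plates and cultured with or without doxycycline, added 24 h before compounds, to induce EWS-FLI1 shRNA knockdown. Library compounds at two or more concentrations, alongside DMSO controls, were applied for three days. Cell viability was measured by CellTiter-Glo luminescence on an Envision reader. Readings were LOESS-corrected per plate, divided by the median of negative controls and log2-transformed, and hits were wells lying at least three median absolute deviations from the median of all screened wells.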
# [1] = 0.25 µM, library screen: screen2, EWS-FLI1 expression: high (no doxycycline)
# [2] = 0.25 µM, library screen: screen2, EWS-FLI1 expression: low (doxycycline-induced shRNA knockdown)
# [3] = 2.5 µM, library screen: screen2, EWS-FLI1 expression: high (no doxycycline)
# [4] = 2.5 µM, library screen: screen2, EWS-FLI1 expression: low (doxycycline-induced shRNA knockdown)
# [5] = 0.025 µM, library screen: screen2, EWS-FLI1 expression: high (no doxycycline)
# [6] = 0.025 µM, library screen: screen2, EWS-FLI1 expression: low (doxycycline-induced shRNA knockdown)
# [7] = 0.25 µM, library screen: screen1, EWS-FLI1 expression: high (no doxycycline)
# [8] = 0.25 µM, library screen: screen1, EWS-FLI1 expression: low (doxycycline-induced shRNA knockdown)
# [9] = 2.5 µM, library screen: screen1, EWS-FLI1 expression: high (no doxycycline)
# [10] = 2.5 µM, library screen: screen1, EWS-FLI1 expression: low (doxycycline-induced shRNA knockdown)
# [11] = 25 µM, library screen: screen2, EWS-FLI1 expression: high (no doxycycline)
# [12] = 25 µM, library screen: screen2, EWS-FLI1 expression: low (doxycycline-induced shRNA knockdown)
Structure (SMILES),cell viability (log2) [1],cell viability (log2) [2],cell viability (log2) [3],cell viability (log2) [4],cell viability (log2) [5],cell viability (log2) [6],cell viability (log2) [7],cell viability (log2) [8],cell viability (log2) [9],cell viability (log2) [10],cell viability (log2) [11],cell viability (log2) [12],"cell viability (log2) (0.025 µM, library screen: screen1, EWS-FLI1 expression: high (no doxycycline))","cell viability (log2) (0.025 µM, library screen: screen1, EWS-FLI1 expression: low (doxycycline-induced shRNA knockdown))","cell viability (log2) (25 µM, library screen: screen1, EWS-FLI1 expression: high (no doxycycline))","cell viability (log2) (25 µM, library screen: screen1, EWS-FLI1 expression: low (doxycycline-induced shRNA knockdown))"
CCCN1CCC[C@@H]2Cc3nc(N)ncc3C[C@H]21,inactive: 0.0767,inactive: 0.0848,inactive: 0.147,inactive: 0.0159,–,–,–,–,–,–,–,–,–,–,–,–
C=C[C@H]1CN2CC[C@H]1C[C@@H]2[C@@H](O)c1ccnc2ccccc12,inactive: 0.0544,inactive: 0.025,inactive: 0.0996,inactive: 0.113,inactive: -0.0178,inactive: 0.065,inactive: 0.0563,inactive: 0.00789,inactive: 0.109,inactive: 0.0808,inactive: 0.109,inactive: 0.0339,–,–,–,–
Cn1cnc(CCN)c1,inactive: 0.106,inactive: 0.0803,inactive: 0.187,inactive: 0.116,–,–,–,–,–,–,–,–,–,–,–,–
C1CCc2nnnn2CC1,inactive: 0.186,inactive: 0.0782,inactive: 0.149,inactive: 0.0712,–,–,inactive: 0.121,inactive: 0.103,inactive: 0.152,inactive: 0.165,–,–,–,–,–,–
OC[C@@H]1CCCN2CCCC[C@H]12,–,–,–,–,–,–,inactive: 0.107,inactive: 0.116,inactive: 0.168,inactive: 0.165,–,–,–,–,–,–
O=C1C=CC(=O)c2c(O)cccc21,inactive: 0.0843,inactive: 0.00401,inactive: 0.273,inactive: 0.125,inactive: 0.123,inactive: 0.0947,inactive: 0.185,inactive: 0.0663,inactive: 0.153,inactive: 0.0956,active: -0.0924,active: -0.0926,–,–,–,–
COC[C@H]1OC(=O)c2coc3c2[C@@]1(C)C1=C(C3=O)[C@@H]2CCC(=O)[C@@]2(C)C[C@H]1OC(C)=O,inactive: 0.179,inactive: 0.0105,inactive: -0.0237,inactive: 0.0148,–,–,inactive: 0.137,inactive: -0.0412,active: -0.356,inactive: -0.0837,–,–,inactive: 0.254,inactive: 0.0235,active: -0.711,active: -0.309
CC(=O)O[C@H]1CC[C@]2(C=O)C3CC[C@]4(C)[C@@H](C5=CC(=O)OC5)CC[C@]4(O)C3CC[C@]2(O)C1 (some centres not stated),–,–,–,–,–,–,inactive: 0.0163,inactive: -0.145,active: -1.12,active: -1.15,–,–,–,–,–,–
CNNC,inactive: 0.206,inactive: 0.035,inactive: 0.112,inactive: 0.0817,inactive: 0.186,inactive: 0.0401,inactive: 0.136,inactive: 0.152,inactive: 0.115,inactive: 0.131,inactive: 0.239,inactive: 0.143,–,–,–,–
